From paper PMC4336329 (PLoS ONE, 2015)
About 14,000 (4.5%) of roughly 310,000 compounds showed an effect of 50% or more. The effect is printed as a negative number. The list shows a part of the results.

target: human ether-à-go-go-related gene (hERG) potassium channel (human, UniProt Q12809); experiment: primary screen, population patch clamp on CHO cells stably expressing hERG
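Further: peak tail current of the secondary pulse compared with the same well before compound.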

Chain of human ether-à-go-go-related gene (hERG) potassium channel (Q12809 whole entry, looked up): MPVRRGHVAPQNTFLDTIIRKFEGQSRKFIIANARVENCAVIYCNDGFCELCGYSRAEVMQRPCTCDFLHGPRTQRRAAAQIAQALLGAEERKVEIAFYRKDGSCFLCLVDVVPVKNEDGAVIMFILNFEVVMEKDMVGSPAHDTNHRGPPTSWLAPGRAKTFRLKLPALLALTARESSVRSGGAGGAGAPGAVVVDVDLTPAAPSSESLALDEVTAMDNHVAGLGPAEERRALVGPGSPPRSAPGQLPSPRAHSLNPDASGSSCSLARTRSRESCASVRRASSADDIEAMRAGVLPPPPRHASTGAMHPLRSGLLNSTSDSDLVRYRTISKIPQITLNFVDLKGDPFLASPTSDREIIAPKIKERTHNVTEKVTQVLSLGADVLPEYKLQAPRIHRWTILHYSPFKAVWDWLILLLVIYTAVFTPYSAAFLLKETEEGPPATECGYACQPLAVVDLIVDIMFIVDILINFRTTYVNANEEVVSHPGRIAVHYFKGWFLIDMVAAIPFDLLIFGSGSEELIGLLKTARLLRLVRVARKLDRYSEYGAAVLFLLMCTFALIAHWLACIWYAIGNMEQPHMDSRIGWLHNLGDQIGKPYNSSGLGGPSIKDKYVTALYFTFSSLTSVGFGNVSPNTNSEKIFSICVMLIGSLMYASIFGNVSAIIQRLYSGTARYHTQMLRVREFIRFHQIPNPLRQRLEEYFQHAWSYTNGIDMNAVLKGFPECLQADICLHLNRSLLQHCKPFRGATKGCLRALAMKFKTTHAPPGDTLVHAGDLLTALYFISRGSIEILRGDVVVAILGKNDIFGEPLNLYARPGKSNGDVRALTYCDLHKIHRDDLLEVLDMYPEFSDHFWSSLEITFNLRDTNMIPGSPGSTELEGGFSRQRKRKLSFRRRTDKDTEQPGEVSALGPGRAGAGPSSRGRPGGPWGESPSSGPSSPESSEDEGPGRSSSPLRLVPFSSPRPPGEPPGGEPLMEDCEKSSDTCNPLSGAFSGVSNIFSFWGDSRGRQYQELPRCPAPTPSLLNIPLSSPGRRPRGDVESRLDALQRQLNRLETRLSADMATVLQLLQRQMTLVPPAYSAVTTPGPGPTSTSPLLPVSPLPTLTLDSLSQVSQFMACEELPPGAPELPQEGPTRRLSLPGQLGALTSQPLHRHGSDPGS

Going from COc1ccc(NC2CCCN(C(=O)CCC3=NNC(=O)CC3)C2)cc1 (centres unmarked) to COc1ccc(-n2c(=S)[nH]c3cc(C(=O)NCCCN4CCCC4=O)ccc3c2=O)cc1, the “hERG current change (%, negative = inhibition) at 10uM” value falls from 15.7% to 15.3%.

Compared with CCn1c(SCCC(=O)Nc2ccccc2)nnc1-c1ccc(OC)cc1, CC(=O)Nc1cccc(-c2nc3ccccc3c(=O)o2)c1 is higher in “hERG current change (%, negative = inhibition) at 10uM” value: 4.86% for the first, 9.11% for the second.

First: CCCOc1ccc(/C(O)=C2\C(=O)C(=O)N(CCCOC)C23C(=O)N(C)c2ccccc23)cc1 (centres unmarked)
Second: CCN(C(=O)COC(=O)c1cc(S(=O)(=O)N2CCc3ccccc32)ccc1OC)C1CCS(=O)(=O)C1 (centres unmarked)
The “hERG current change (%, negative = inhibition) at 10uM” value of the first is higher: 20.7% for the first, -16.3% for the second.

Going from C=CCN1C(=O)S/C(=C/c2ccc(Sc3nc4ccccc4[nH]3)o2)C1=O to O=C(CSc1nc2ccccc2c(=O)[nH]1)Nc1ccccc1C(F)(F)F, the “hERG current change (%, negative = inhibition) at 10uM” value falls from 3.61% to -2.68%.

Compared with O=C(Nc1ccc(C(=O)c2ccccc2)cc1)c1ccccc1, Cc1cccc(C(=O)NN/C=C/C(=O)c2ccccc2)c1 is lower in “hERG current change (%, negative = inhibition) at 10uM” value: 9.86% for the first, -4.94% for the second.

Going from O=C(NCc1ccco1)c1sc2ccccc2c1Cl to CN(C(=O)COC(=O)CNC(=O)c1sc2ccccc2c1Cl)c1ccccc1, the “hERG current change (%, negative = inhibition) at 10uM” value rises from -9.84% to 0.791%.

Compared with Cc1nn(CCCC(=O)NCc2ccc(Cl)cc2)c(C)c1[N+](=O)[O-], O=C(CCCOc1ccc(Cl)cc1Cl)NCC1CCCO1 (centres unmarked) is higher in “hERG current change (%, negative = inhibition) at 10uM” value: -41.9% for the first, -9.76% for the second.

Compared with CC(C)(C)NCc1ccc(OCc2cccs2)cc1.Cl, Cc1[nH]c2ccccc2c1/C=N/NC(=O)Cc1cccs1 is lower in “hERG current change (%, negative = inhibition) at 10uM” value: 11.9% for the first, 6.95% for the second.

First: O=[N+]([O-])c1ccc(N2CCCCC2)nc1
Second: CN(CC(=O)Nc1ccc(S(N)(=O)=O)cc1)C1CCCCC1
The “hERG current change (%, negative = inhibition) at 10uM” value of the first is lower: -3.2% for the first, -1.84% for the second.

Compared with O=C(NC(=S)NCc1ccccc1)c1cccs1, O=C(Nc1ccc(Cl)cc1)c1cc(-c2cccs2)on1 is higher in “hERG current change (%, negative = inhibition) at 10uM” value: 7.8% for the first, 24.6% for the second.

First: CCOC(=O)c1cccc(C2=CC(=O)C[C@H](c3ccc(OC)c(OC)c3)C2)c1
Second: COc1ccc(S(=O)(=O)N(CC(=O)NC2CC2)c2ccc(C)cc2)cc1OC
The “hERG current change (%, negative = inhibition) at 10uM” value of the first is lower: -26% for the first, 14.7% for the second.

Compared with Cl.O=C(NCCCNC(=O)c1cncc(O)c1)c1cncc(O)c1, COCCNC(=O)C(=O)N/N=C(\C)CC(=O)Nc1cccnc1 is lower in “hERG current change (%, negative = inhibition) at 10uM” value: 19% for the first, 8.89% for the second.

Going from COCC(=O)Nc1ccc(S(=O)(=O)Nc2nccs2)cc1 to O=C1CCCN1c1ccc(S(=O)(=O)Nc2cccnc2)cc1, the “hERG current change (%, negative = inhibition) at 10uM” value falls from 6.17% to -3.53%.

Compared with COc1ccc(NC(=O)CCNC(=O)c2ccco2)cc1S(=O)(=O)N(C)C, COc1ccc(NC(=O)CNc2cccc(C#N)c2)cc1Cl is lower in “hERG current change (%, negative = inhibition) at 10uM” value: 14.1% for the first, -1.89% for the second.

Going from CC(C)NC(=O)Cc1ccc(Br)cc1 to CCCc1ccc(-c2csc(NC(=O)C3=COCCO3)n2)cc1, the “hERG current change (%, negative = inhibition) at 10uM” value falls from 3.92% to 3.51%.

First: COc1ccc(CN2CC[C@@H](N3CCOCC3)[C@H](O)C2)cc1F
Second: O=C(c1ccc(N2CCOCC2)c([N+](=O)[O-])c1)N1CCN(Cc2ccccc2)CC1
The “hERG current change (%, negative = inhibition) at 10uM” value of the first is higher: -8.02% for the first, -66.9% for the second.

Going from CCNc1ccc(C(=O)OCC(=O)NCCN2C(=O)CSC2=O)cc1[N+](=O)[O-] to COc1ccc(Cl)cc1NC(=O)COC(=O)CNC(=O)C1CCCCC1, the “hERG current change (%, negative = inhibition) at 10uM” value rises from -23.4% to 9.87%.

Going from O=C(CCCCCNS(=O)(=O)c1ccc(Br)cc1)NCCN1CCOCC1 to Cc1ccccc1CS(=O)(=O)CCC(=O)N1CCN(c2ccc(N3CCOCC3)nn2)CC1, the “hERG current change (%, negative = inhibition) at 10uM” value rises from -19.7% to -4.17%.

Going from O=C1NC(c2cn(-c3ccccc3)nc2-c2cccs2)C(C(=O)c2cccnc2)C(O)(C(F)(F)F)N1 (centres unmarked) to O=C(Nc1cccnc1Cl)c1cc(-c2ccccc2O)on1, the “hERG current change (%, negative = inhibition) at 10uM” value falls from 5.79% to -5.16%.

Compared with Cc1ccc(S(=O)(=O)c2nnn3c2nc(N2CCOCC2)c2ccccc23)c(C)c1, CCOC(=O)c1ccc(Oc2nc(N(C)C)nc(N3CCOCC3)n2)cc1 is higher in “hERG current change (%, negative = inhibition) at 10uM” value: -31.3% for the first, -3.51% for the second.

First: N#CSCC(=O)N1c2ccccc2CCc2ccccc21
Second: Cc1c(C(=O)OCC(=O)N(C)c2ccccc2)oc2ccccc12
The “hERG current change (%, negative = inhibition) at 10uM” value of the first is lower: -24.3% for the first, 3.17% for the second.

Going from CCCC(c1nnnn1CCc1ccccc1)N1CCC(C(N)=O)CC1 (centres unmarked) to CCOC(=O)C1(Cc2ccccc2Cl)CCN(C(=O)c2cnccn2)CC1, the “hERG current change (%, negative = inhibition) at 10uM” value falls from 1.35% to -20.2%.

Going from CN1/C(=C/C=C(C#N)C#N)C=Cc2ccccc21 to Cc1cc(C(=O)Nc2ccccc2)oc1C, the “hERG current change (%, negative = inhibition) at 10uM” value falls from 11.5% to 7.57%.

First: O=[N+]([O-])c1ccc(/C=N/NC2=NS(=O)(=O)c3ccccc32)cc1
Second: C#CCNC(=O)C1=C[C@H](c2cn(C(C)=O)c3ccccc23)C[C@H](OCc2ccc(CO)cc2)O1
The “hERG current change (%, negative = inhibition) at 10uM” value of the first is higher: -7.49% for the first, -38.4% for the second.

Compared with CCNS(=O)(=O)c1c(C)cc(C)c(N(C)S(=O)(=O)c2ccccc2)c1C, CC/C(=N\N=C(/CC)c1ccccc1N)c1ccccc1N is higher in “hERG current change (%, negative = inhibition) at 10uM” value: -33.8% for the first, 8.02% for the second.

First: COc1ccc(-c2nnn(CC(=O)N(Cc3ccc(F)cc3)C(C(=O)NC3CCCC3)c3ccc(F)cc3)n2)cc1 (centres unmarked)
Second: COc1ccc(-c2cc(C(F)(F)F)nc(SCC(=O)Nc3sc4c(c3C#N)CCC4)n2)cc1
The “hERG current change (%, negative = inhibition) at 10uM” value of the first is higher: 14.9% for the first, 13.6% for the second.

Compared with Cc1ccc(Nc2cc(C)nc3nnnn23)cc1, C(=C\c1ccccc1)/CSc1nc2ncccc2[nH]1 is higher in “hERG current change (%, negative = inhibition) at 10uM” value: 0.981% for the first, 12.2% for the second.

First: O=C(Nc1cccc(C(=O)O)c1)/C(=C\c1ccc2c(c1)OCO2)NC(=O)c1ccc(Br)o1
Second: CC1CCN(S(=O)(=O)N2CCC(C(=O)N3CCC(N(C)CC4CCCO4)CC3)CC2)CC1 (centres unmarked)
The “hERG current change (%, negative = inhibition) at 10uM” value of the first is higher: 5.52% for the first, -22.1% for the second.
